# Assay results published in paper PMC8456368 (Bioorganic & medicinal chemistry, 2021).
# Molecular target: T1, GST-MKK3/VF-MYC PPI (Homo sapiens, UniProt P46734)
# T1 sequence (P46734 1-347): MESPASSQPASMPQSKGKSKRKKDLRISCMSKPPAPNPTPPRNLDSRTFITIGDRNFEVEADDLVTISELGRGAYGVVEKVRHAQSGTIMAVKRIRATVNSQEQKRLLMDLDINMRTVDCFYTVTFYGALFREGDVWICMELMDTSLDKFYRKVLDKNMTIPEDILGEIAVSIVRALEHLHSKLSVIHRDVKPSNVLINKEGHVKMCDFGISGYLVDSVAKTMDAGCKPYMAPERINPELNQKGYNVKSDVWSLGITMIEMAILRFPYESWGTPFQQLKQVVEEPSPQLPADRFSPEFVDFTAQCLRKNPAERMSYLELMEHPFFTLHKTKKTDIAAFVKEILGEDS
# Settings: 20µM final concentration; vs DMSO control
compound,measurement,value
N.N.[Cl][Pt][Cl] [Cisplatin],inhibition of MKK3-MYC PPI in uHTS,55%
